# Over roughly 81,000 sequences, “one-hybrid fitness for binding NBS DNA” has its median near -0.1; the highest 2% begin near 0.36. The list shows a part of the results.
# B1: Caulobacter ParB omega fusion; a variant is named by its letters at X, in order, B8GW30 (parent)
# chain: MESVVVGEPGMSEGRRGLGRGLSALLGEVDAAPAQAPGEQLGGSREAPIEILQRNPDQPRRTFREEDLEDLSNSIREKGVLQPILVRPSPDTAGEYQIVAGERAWRAAQRAGLKTVPIMVRELDDLAVLEIGIIENVQRADLNVLEEALSYKVLMEKFERTQENIAQTIGKSXSHVANXMRLLXLPDEVQSYLVSGELTAXHARAIAAAADPVALAKQIIEGGLSVRETEALARKAPNLSAGKSKGGRPPRVKDTDTQALESDLSSVLGLDVSIDHRGSTGTLTITYATLEQLDDLCNRLTRGI
# Variants of: B1
# Experiment: one-hybrid fitness for binding NBS DNA (the Noc-binding site; scaled: cognate 1, non-cognate 0); higher = stronger binding
# Settings: with NBS DNA site
# Method in brief: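 Fitness is the rescaled log change in variant-to-wild-type read ratio, measured by Illumina sequencing of plasmids before and after bacterial one-hybrid selection. The scale puts cognate at 1 and non-cognate at 0. Selection of Caulobacter ParB libraries, four specificity codons randomised, took place in E. coli USO with a HIS3 reporter, site 19 bp from the promoter, over 48 hours at 37°C on M9-minus-histidine with 0.1 mM IPTG and 5 mM 3-AT.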
row,Variant,one-hybrid fitness for binding NBS DNA
1,NKLC,≤ 0.2
2,QRLF,0.238
3,RNMD,≤ 0.2
4,VPSG,≤ 0.2
5,MYMR,≤ 0.2
6,LNHI,≤ 0.2
7,LYYL,≤ 0.2
8,DTFI,≤ 0.2
9,MNLT,≤ 0.2
10,SGFW,≤ 0.2
11,PRLF,≤ 0.2
12,RTGK,≤ 0.2
13,RRGH,0.44
14,DMHG,≤ 0.2
15,KLNM,≤ 0.2
16,TDDT,≤ 0.2
17,NMLV,≤ 0.2
18,DMPM,≤ 0.2
19,ICTT,≤ 0.2
20,IPCY,≤ 0.2
21,MQNS,≤ 0.2
22,RAML,≤ 0.2
23,QHET,0.272
24,RPKD,≤ 0.2

row,Variant,one-hybrid fitness for binding NBS DNA
1,EAMR,≤ 0.2
2,HVLV,≤ 0.2
3,PVHV,≤ 0.2
4,HPRS,≤ 0.2
5,EWPP,≤ 0.2
6,ADAV,≤ 0.2
7,IRSR,0.282
8,TFCT,≤ 0.2
9,AYAD,≤ 0.2
10,PGGL,≤ 0.2
11,ILQP,≤ 0.2
12,HTPM,≤ 0.2
13,GVDG,≤ 0.2
14,VARL,≤ 0.2
15,QDVY,≤ 0.2
16,CCSW,≤ 0.2
17,WSMR,≤ 0.2
18,FNQS,≤ 0.2
19,QRPM,≤ 0.2
20,RVWD,≤ 0.2
21,YCAG,≤ 0.2
22,QMGV,≤ 0.2
23,RVWW,≤ 0.2
24,IQHR,≤ 0.2

row,Variant,one-hybrid fitness for binding NBS DNA
1,ACKR,0.22
2,MELF,≤ 0.2
3,WQRS,≤ 0.2
4,PQRA,≤ 0.2
5,AVVH,≤ 0.2
6,PDGD,≤ 0.2
7,TINY,≤ 0.2
8,HILR,≤ 0.2
9,SQPR,≤ 0.2
10,ESVV,≤ 0.2
11,NYFA,≤ 0.2
12,LKSS,≤ 0.2
13,HVQI,≤ 0.2
14,ASKR,0.209
15,CARL,≤ 0.2
16,EHRK,≤ 0.2
17,PIRG,≤ 0.2
18,VSCY,≤ 0.2
19,MRAV,≤ 0.2
20,NESC,≤ 0.2
21,RNPE,≤ 0.2
22,HQMG,≤ 0.2
23,KIWS,≤ 0.2
24,FRTS,≤ 0.2

row,Variant,one-hybrid fitness for binding NBS DNA
1,DRMY,≤ 0.2
2,RNHN,≤ 0.2
3,HTYS,≤ 0.2
4,ILAG,≤ 0.2
5,PLKY,≤ 0.2
6,KTAG,≤ 0.2
7,AQLI,≤ 0.2
8,AVNG,≤ 0.2
9,VGNG,≤ 0.2
10,WFNT,≤ 0.2
11,KRRR,0.787
12,QRGM,0.436
13,SGAF,≤ 0.2
14,VTQI,≤ 0.2
15,YQSV,≤ 0.2
16,WTLF,≤ 0.2
17,CWIS,≤ 0.2
18,IRFC,≤ 0.2
19,FSES,≤ 0.2
20,QIPN,≤ 0.2
21,CNKY,≤ 0.2
22,QYLL,≤ 0.2
23,HCIG,≤ 0.2
24,MPSC,≤ 0.2

row,Variant,one-hybrid fitness for binding NBS DNA
1,DIQV,≤ 0.2
2,VRNL,≤ 0.2
3,SRVK,≤ 0.2
4,HFPG,≤ 0.2
5,RAYI,≤ 0.2
6,WWRS,≤ 0.2
7,EWTV,≤ 0.2
8,TWPG,≤ 0.2
9,WAMY,≤ 0.2
10,TCAG,≤ 0.2
11,SRSY,≤ 0.2
12,FTSF,≤ 0.2
13,PFAH,≤ 0.2
14,LRGS,≤ 0.2
15,KPVM,≤ 0.2
16,LCSL,≤ 0.2
17,IPKT,≤ 0.2
18,HGFM,≤ 0.2
19,TCGS,≤ 0.2
20,RHNM,≤ 0.2
21,DHPF,≤ 0.2
22,MNST,≤ 0.2
23,DISR,≤ 0.2
24,QHAC,≤ 0.2

row,Variant,one-hybrid fitness for binding NBS DNA
1,VCVI,≤ 0.2
2,DSMS,≤ 0.2
3,AHTH,≤ 0.2
4,CVFT,≤ 0.2
5,DHQS,≤ 0.2
6,MEQS,≤ 0.2
7,QSVV,≤ 0.2
8,KTAW,≤ 0.2
9,GAAM,≤ 0.2
10,MYTA,≤ 0.2
11,GRQK,≤ 0.2
12,HRGQ,≤ 0.2
13,LPAF,≤ 0.2
14,VTSF,≤ 0.2
15,THHR,≤ 0.2
16,STHY,≤ 0.2
17,QTSP,≤ 0.2
18,KAIM,≤ 0.2
19,ARTK,≤ 0.2
20,MHSA,≤ 0.2
21,TIGC,≤ 0.2
22,IPIV,≤ 0.2
23,HLKK,≤ 0.2
24,YIFL,≤ 0.2

row,Variant,one-hybrid fitness for binding NBS DNA
1,RWCM,≤ 0.2
2,DTTA,≤ 0.2
3,YQSR,≤ 0.2
4,LTPP,≤ 0.2
5,DEQR,≤ 0.2
6,QRSG,0.339
7,SYTE,≤ 0.2
8,RMEE,≤ 0.2
9,NEMC,≤ 0.2
10,CQVA,≤ 0.2
11,QRHV,0.439
12,GYTH,≤ 0.2
13,QTAD,≤ 0.2
14,NRED,≤ 0.2
15,ARVH,≤ 0.2
16,KRYN,≤ 0.2
17,KCDL,≤ 0.2
18,QWPL,≤ 0.2
19,GLMW,≤ 0.2
20,QAQA,0.252
21,TNTM,≤ 0.2
22,DATS,≤ 0.2
23,CHYK,≤ 0.2
24,TQNH,≤ 0.2

row,Variant,one-hybrid fitness for binding NBS DNA
1,MTEG,≤ 0.2
2,SAWQ,≤ 0.2
3,QRNE,0.276
4,QPMS,≤ 0.2
5,AVRD,≤ 0.2
6,MHGS,≤ 0.2
7,KALC,≤ 0.2
8,AFDS,≤ 0.2
9,AFMS,≤ 0.2
10,MNVM,≤ 0.2
11,DSVG,≤ 0.2
12,RGHM,≤ 0.2
13,PMFI,≤ 0.2
14,SDKM,≤ 0.2
15,ALIC,≤ 0.2
16,WHTA,≤ 0.2
17,GDYC,≤ 0.2
18,YRHT,≤ 0.2
19,TIAV,≤ 0.2
20,FKSV,≤ 0.2
21,EMNT,≤ 0.2
22,VNMT,≤ 0.2
23,GNYL,≤ 0.2
24,VAVI,≤ 0.2

row,Variant,one-hybrid fitness for binding NBS DNA
1,LGSC,≤ 0.2
2,AWRL,≤ 0.2
3,RMKT,0.606
4,AKGC,≤ 0.2
5,ASLK,≤ 0.2
6,FDAT,≤ 0.2
7,VSLY,≤ 0.2
8,TACH,≤ 0.2
9,EMCS,≤ 0.2
10,FVLA,≤ 0.2
11,SDQP,≤ 0.2
12,GQQS,≤ 0.2
13,RPHW,≤ 0.2
14,KGDC,≤ 0.2
15,LASQ,≤ 0.2
16,PWPE,≤ 0.2
17,HHCG,≤ 0.2
18,MMSV,≤ 0.2
19,HKQC,≤ 0.2
20,YMPR,≤ 0.2
21,NIIS,≤ 0.2
22,LNNS,≤ 0.2
23,ITRV,≤ 0.2
24,ADWI,≤ 0.2

row,Variant,one-hybrid fitness for binding NBS DNA
1,NVTS,≤ 0.2
2,GCSI,≤ 0.2
3,NCRW,≤ 0.2
4,LHER,≤ 0.2
5,NDGG,≤ 0.2
6,TFKE,≤ 0.2
7,VATA,≤ 0.2
8,QSVL,≤ 0.2
9,ESVA,≤ 0.2
10,PVRF,≤ 0.2
11,ACTM,≤ 0.2
12,VPAN,≤ 0.2
13,GKYS,≤ 0.2
14,PSCV,≤ 0.2
15,MVPV,≤ 0.2
16,ACNR,≤ 0.2
17,VIVC,≤ 0.2
18,VNDS,≤ 0.2
19,RCFC,≤ 0.2
20,QKAI,≤ 0.2
21,SGPI,≤ 0.2
22,YHRF,≤ 0.2
23,TYLI,≤ 0.2
24,EEAM,≤ 0.2

row,Variant,one-hybrid fitness for binding NBS DNA
1,RVKA,0.355
2,AKVR,≤ 0.2
3,PFTW,≤ 0.2
4,QTCS,0.495
5,KQPC,≤ 0.2
6,GCER,≤ 0.2
7,RLAW,≤ 0.2
8,RYED,≤ 0.2
9,EQTG,≤ 0.2
10,RGCY,≤ 0.2
11,QEDL,≤ 0.2
12,DVMS,≤ 0.2
13,LMTT,≤ 0.2
14,GSYC,≤ 0.2
15,VPSY,≤ 0.2
16,QPDP,≤ 0.2
17,TDPQ,≤ 0.2
18,HVRS,≤ 0.2
19,LYDG,≤ 0.2
20,LSRV,≤ 0.2
21,MSVR,≤ 0.2
22,HMTG,≤ 0.2
23,KHRH,≤ 0.2
24,SMRR,≤ 0.2

row,Variant,one-hybrid fitness for binding NBS DNA
1,QMSY,≤ 0.2
2,ERYT,≤ 0.2
3,VAIL,≤ 0.2
4,ILPC,≤ 0.2
5,TYLG,≤ 0.2
6,KYAM,≤ 0.2
7,NTVR,≤ 0.2
8,DWAR,≤ 0.2
9,MEPL,≤ 0.2
10,IRTK,≤ 0.2
11,YVNE,≤ 0.2
12,PSEP,≤ 0.2
13,LMVS,≤ 0.2
14,NGPN,≤ 0.2
15,TALD,≤ 0.2
16,MWHG,≤ 0.2
17,LSQK,≤ 0.2
18,MKVT,≤ 0.2
19,RAKV,≤ 0.2
20,RQEP,≤ 0.2
21,FWYG,≤ 0.2
22,QAGS,0.342
23,HESV,≤ 0.2
24,PETH,≤ 0.2

row,Variant,one-hybrid fitness for binding NBS DNA
1,PCQL,≤ 0.2
2,HTAN,≤ 0.2
3,LRQL,≤ 0.2
4,MEPN,≤ 0.2
5,IAAP,≤ 0.2
6,LLPN,≤ 0.2
7,LGNA,≤ 0.2
8,SLPA,≤ 0.2
9,VDYG,≤ 0.2
10,PVKG,≤ 0.2
11,MDKT,≤ 0.2
12,LLPR,≤ 0.2
13,PKYM,≤ 0.2
14,APCN,≤ 0.2
15,HGDS,≤ 0.2
16,PRAT,≤ 0.2
17,SVQL,≤ 0.2
18,TVPY,≤ 0.2

# Reference: a collection of fitness landscapes (doi:10.1016/j.celrep.2020.107928)
